# Laboratory results reported in article PMC9911399, “Two distinct binding modes provide the RNA-binding protein RbFox with extraordinary sequence specificity”.
# Substitutions are numbered along the chain they refer to; changes in the protein carry UniProt numbers. This is one part of the list.
# T1: RBFOX1 RRM RbFoxmut (Fox-RRM*) (Homo sapiens, UniProt Q9NWB1 109-208, R118D;E147R;N151S;E152T)
# T1 sequence: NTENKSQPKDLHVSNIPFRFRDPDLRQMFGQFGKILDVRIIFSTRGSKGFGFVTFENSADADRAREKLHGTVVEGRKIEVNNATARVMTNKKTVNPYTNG
# B1: AAGAUUA (DNA:RNA)
# RNA: GGGAGACCGGAAUUCAGAUUGUCCAAGAUUAUUAAAUCCCGUCGUAGCCACCA
# DNA 1: CAATCTGAATTCCGGTCTCCC
# DNA 2: TGGTGGCTACGACGGGATT
# B2: CGGCUCC (DNA:RNA)
# RNA: B1 RNA with A25C, A26G, A28C, U30C, A31C
# DNA 1: CAATCTGAATTCCGGTCTCCC
# DNA 2: TGGTGGCTACGACGGGATT
# B3: GAGCAGG (DNA:RNA)
# RNA: B1 RNA with A25G, A28C, U29A, U30G, A31G
# DNA 1: CAATCTGAATTCCGGTCTCCC
# DNA 2: TGGTGGCTACGACGGGATT
# B4: UACAUAA (DNA:RNA)
# RNA: B1 RNA with A25U, G27C, U30A
# DNA 1: CAATCTGAATTCCGGTCTCCC
# DNA 2: TGGTGGCTACGACGGGATT
# B5: ACCCAGU (DNA:RNA)
# RNA: B1 RNA with A26C, G27C, A28C, U29A, U30G, A31U
# DNA 1: CAATCTGAATTCCGGTCTCCC
# DNA 2: TGGTGGCTACGACGGGATT
# B6: UUUAGAU (DNA:RNA)
# RNA: B1 RNA with A25U, A26U, G27U, U29G, U30A, A31U
# DNA 1: CAATCTGAATTCCGGTCTCCC
# DNA 2: TGGTGGCTACGACGGGATT
# B7: UGUCUAC (DNA:RNA)
# RNA: B1 RNA with A25U, A26G, G27U, A28C, U30A, A31C
# DNA 1: CAATCTGAATTCCGGTCTCCC
# DNA 2: TGGTGGCTACGACGGGATT
# B8: GCGAGAG (DNA:RNA)
# RNA: B1 RNA with A25G, A26C, U29G, U30A, A31G
# DNA 1: CAATCTGAATTCCGGTCTCCC
# DNA 2: TGGTGGCTACGACGGGATT
# B9: CGGACCG (DNA:RNA)
# RNA: B1 RNA with A25C, A26G, U29C, U30C, A31G
# DNA 1: CAATCTGAATTCCGGTCTCCC
# DNA 2: TGGTGGCTACGACGGGATT
# B10: CCAAAAC (DNA:RNA)
# RNA: B1 RNA with A25C, A26C, G27A, U29A, U30A, A31C
# DNA 1: CAATCTGAATTCCGGTCTCCC
# DNA 2: TGGTGGCTACGACGGGATT
# B11: GGUUGGA (DNA:RNA)
# RNA: B1 RNA with A25G, A26G, G27U, A28U, U29G, U30G
# DNA 1: CAATCTGAATTCCGGTCTCCC
# DNA 2: TGGTGGCTACGACGGGATT
# B12: UCUCUAA (DNA:RNA)
# RNA: B1 RNA with A25U, A26C, G27U, A28C, U30A
# DNA 1: CAATCTGAATTCCGGTCTCCC
# DNA 2: TGGTGGCTACGACGGGATT
# B13: UGCUGCA (DNA:RNA)
# RNA: B1 RNA with A25U, A26G, G27C, A28U, U29G, U30C
# DNA 1: CAATCTGAATTCCGGTCTCCC
# DNA 2: TGGTGGCTACGACGGGATT
# B14: CCUGCGA (DNA:RNA)
# RNA: B1 RNA with A25C, A26C, G27U, A28G, U29C, U30G
# DNA 1: CAATCTGAATTCCGGTCTCCC
# DNA 2: TGGTGGCTACGACGGGATT
# B15: GCUUGUG (DNA:RNA)
# RNA: B1 RNA with A25G, A26C, G27U, A28U, U29G, A31G
# DNA 1: CAATCTGAATTCCGGTCTCCC
# DNA 2: TGGTGGCTACGACGGGATT
# B16: CCAGACA (DNA:RNA)
# RNA: B1 RNA with A25C, A26C, G27A, A28G, U29A, U30C
# DNA 1: CAATCTGAATTCCGGTCTCCC
# DNA 2: TGGTGGCTACGACGGGATT
# B17: UAAUUUU (DNA:RNA)
# RNA: B1 RNA with A25U, G27A, A28U, A31U
# DNA 1: CAATCTGAATTCCGGTCTCCC
# DNA 2: TGGTGGCTACGACGGGATT
# B18: GAUGUAA (DNA:RNA)
# RNA: B1 RNA with A25G, G27U, A28G, U30A
# DNA 1: CAATCTGAATTCCGGTCTCCC
# DNA 2: TGGTGGCTACGACGGGATT
# B19: CCCACCU (DNA:RNA)
# RNA: B1 RNA with A25C, A26C, G27C, U29C, U30C, A31U
# DNA 1: CAATCTGAATTCCGGTCTCCC
# DNA 2: TGGTGGCTACGACGGGATT
# B20: CAUUCUA (DNA:RNA)
# RNA: B1 RNA with A25C, G27U, A28U, U29C
# DNA 1: CAATCTGAATTCCGGTCTCCC
# DNA 2: TGGTGGCTACGACGGGATT
# B21: UAGGCCU (DNA:RNA)
# RNA: B1 RNA with A25U, A28G, U29C, U30C, A31U
# DNA 1: CAATCTGAATTCCGGTCTCCC
# DNA 2: TGGTGGCTACGACGGGATT
# B22: GUUAUCU (DNA:RNA)
# RNA: B1 RNA with A25G, A26U, G27U, U30C, A31U
# DNA 1: CAATCTGAATTCCGGTCTCCC
# DNA 2: TGGTGGCTACGACGGGATT
# B23: AACCAAC (DNA:RNA)
# RNA: B1 RNA with G27C, A28C, U29A, U30A, A31C
# DNA 1: CAATCTGAATTCCGGTCTCCC
# DNA 2: TGGTGGCTACGACGGGATT
# B24: CAACACC (DNA:RNA)
# RNA: B1 RNA with A25C, G27A, A28C, U29A, U30C, A31C
# DNA 1: CAATCTGAATTCCGGTCTCCC
# DNA 2: TGGTGGCTACGACGGGATT
# B25: GGAGUAG (DNA:RNA)
# RNA: B1 RNA with A25G, A26G, G27A, A28G, U30A, A31G
# DNA 1: CAATCTGAATTCCGGTCTCCC
# DNA 2: TGGTGGCTACGACGGGATT
# B26: GUGAAGU (DNA:RNA)
# RNA: B1 RNA with A25G, A26U, U29A, U30G, A31U
# DNA 1: CAATCTGAATTCCGGTCTCCC
# DNA 2: TGGTGGCTACGACGGGATT
# B27: AUUCUAA (DNA:RNA)
# RNA: B1 RNA with A26U, G27U, A28C, U30A
# DNA 1: CAATCTGAATTCCGGTCTCCC
# DNA 2: TGGTGGCTACGACGGGATT
# B28: CGAUGAA (DNA:RNA)
# RNA: B1 RNA with A25C, A26G, G27A, A28U, U29G, U30A
# DNA 1: CAATCTGAATTCCGGTCTCCC
# DNA 2: TGGTGGCTACGACGGGATT
# B29: AAGUACC (DNA:RNA)
# RNA: B1 RNA with A28U, U29A, U30C, A31C
# DNA 1: CAATCTGAATTCCGGTCTCCC
# DNA 2: TGGTGGCTACGACGGGATT
# B30: AUGACUU (DNA:RNA)
# RNA: B1 RNA with A26U, U29C, A31U
# DNA 1: CAATCTGAATTCCGGTCTCCC
# DNA 2: TGGTGGCTACGACGGGATT
# B31: CAAACGU (DNA:RNA)
# RNA: B1 RNA with A25C, G27A, U29C, U30G, A31U
# DNA 1: CAATCTGAATTCCGGTCTCCC
# DNA 2: TGGTGGCTACGACGGGATT
# Target: T1, RBFOX1 RRM RbFoxmut (Fox-RRM*)
# Test: EMSA; HiTS-Eq, 1 nM pool, 10 min; buffer printed only for the single-RNA assays: 10 mM Tris pH 7.5, 150 mM NaCl, 3.4 mM EDTA, 0.001% NP-40, 30 C
# Details: tags: His6 N-terminal (pET28a); label: 5' 32P
# Method in brief: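 Purified wild-type or mutant RbFox RRM at increasing concentrations was equilibrated with 1 nM of 5′-radiolabelled RNA carrying 7 randomized nucleotides for 10 min in 50 µL. Unbound RNA was separated by 8% native PAGE and sequenced. Relative association constants came from read-count changes of each RNA species compared with the control reaction, normalised to the cognate motif.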
row,Binder,binding signal
1,B1,0.125 KA relative to UGCAUGU
2,B2,0.08 KA relative to UGCAUGU
3,B3,0.0837 KA relative to UGCAUGU
4,B4,0.0965 KA relative to UGCAUGU
5,B5,0.0826 KA relative to UGCAUGU
6,B6,0.0764 KA relative to UGCAUGU
7,B7,0.0803 KA relative to UGCAUGU
8,B8,0.116 KA relative to UGCAUGU
9,B9,0.172 KA relative to UGCAUGU
10,B10,0.0482 KA relative to UGCAUGU
11,B11,0.0627 KA relative to UGCAUGU
12,B12,0.104 KA relative to UGCAUGU
13,B13,0.251 KA relative to UGCAUGU
14,B14,0.0932 KA relative to UGCAUGU
15,B15,0.259 KA relative to UGCAUGU
16,B16,0.087 KA relative to UGCAUGU

row,Binder,binding signal
1,B17,0.0746 KA relative to UGCAUGU
2,B18,0.0917 KA relative to UGCAUGU
3,B19,0.0699 KA relative to UGCAUGU
4,B20,0.129 KA relative to UGCAUGU
5,B21,0.0852 KA relative to UGCAUGU
6,B22,0.113 KA relative to UGCAUGU
7,B23,0.0799 KA relative to UGCAUGU
8,B24,0.071 KA relative to UGCAUGU
9,B25,0.0998 KA relative to UGCAUGU
10,B26,0.139 KA relative to UGCAUGU
11,B27,0.133 KA relative to UGCAUGU
12,B28,0.123 KA relative to UGCAUGU
13,B29,0.0858 KA relative to UGCAUGU
14,B30,0.0718 KA relative to UGCAUGU
15,B31,0.0843 KA relative to UGCAUGU
